Data as given in patent publication US20250333481A1 (JCR PHARMACEUTICALS, published 2025).
One block for each binder: values may come before it.

How the values were obtained:
[1] = biological target: T1, human transferrin receptor, recombinant extracellular domain (human, UniProt P02786); assay: BLI (Octet RED96e), TfR loaded on Ni-NTA biosensor, analyte 80, 40, 20 nM, 1:1 binding model
T1 construct: also called hTfR; human TER
Experimental: (§1) The binding affinity of hBDNF-HSA-VHH and hBDNF-VHH-HSA for human or mouse TER was measured with Octet RED96e (ForteBio), a biomolecule interaction analysis system using biolayer interferometry. Human TER (hTER) used was a recombinant containing the amino acid sequence of the extracellular domain of hTER from the 89th cysteine residue from the N terminal side to the phenylalanine at the C terminal in the amino acid sequence of hTER represented by SEQ ID NO: 22. Mouse TER (mTER) used was, a recombinant of the extracellular domain of mTER corresponding to the extracellular domain of hTER.
(§2) Each of the hBDNF-HSA-VHH purified product and the hBDNF-VHH-HSA purified product obtained in Example 46 was serially diluted with HBS-P+buffer (Cytiva) containing 1% BSA (FUJIFILM Wako Pure Chemical Corporation) to prepare solutions of 80, 40, 20 nM. This was used as an analyte solution. Human TER and mouse TER were each diluted in HBS-P+buffer containing 1% BSA to prepare a 20 μg/mL solution. This was used as a ligand solution.
(§3) The sample solution and the ligand solution were added to predetermined wells of a black 96-well plate for Octet RED96e (Greiner) in 200 μL each. To the wells for baseline, dissociation and washing was added 200 μL of HBS-P+buffer containing 1% BSA. To the wells for regeneration was added 200 μL of 10 mM glycine buffer (pH 1.7). To the wells for activation was added 200 μL of 0.5 mM NiCl₂ solution. This 96-well plate and a Ni-NTA biosensor (ForteBio) were placed in place in an Octet RED96e instrument. After data acquisition by operating the Octet RED96e under the conditions shown in Table 9 below, the association rate constant (Kₒₙ) and dissociation rate constant (Koff) in the 1:1 binding model were calculated using the software attached to Octet RED96e, and the dissociation constant (Kd) was calculated. The measurement was carried out at a temperature of 25 to 30° C.

[2] = biological target: T2, mouse transferrin receptor, recombinant extracellular domain (mouse, UniProt Q62351); assay: as above
T2 construct: extracellular domain; also called mTfR; mouse TER
T2 sequence (Q62351 89-763): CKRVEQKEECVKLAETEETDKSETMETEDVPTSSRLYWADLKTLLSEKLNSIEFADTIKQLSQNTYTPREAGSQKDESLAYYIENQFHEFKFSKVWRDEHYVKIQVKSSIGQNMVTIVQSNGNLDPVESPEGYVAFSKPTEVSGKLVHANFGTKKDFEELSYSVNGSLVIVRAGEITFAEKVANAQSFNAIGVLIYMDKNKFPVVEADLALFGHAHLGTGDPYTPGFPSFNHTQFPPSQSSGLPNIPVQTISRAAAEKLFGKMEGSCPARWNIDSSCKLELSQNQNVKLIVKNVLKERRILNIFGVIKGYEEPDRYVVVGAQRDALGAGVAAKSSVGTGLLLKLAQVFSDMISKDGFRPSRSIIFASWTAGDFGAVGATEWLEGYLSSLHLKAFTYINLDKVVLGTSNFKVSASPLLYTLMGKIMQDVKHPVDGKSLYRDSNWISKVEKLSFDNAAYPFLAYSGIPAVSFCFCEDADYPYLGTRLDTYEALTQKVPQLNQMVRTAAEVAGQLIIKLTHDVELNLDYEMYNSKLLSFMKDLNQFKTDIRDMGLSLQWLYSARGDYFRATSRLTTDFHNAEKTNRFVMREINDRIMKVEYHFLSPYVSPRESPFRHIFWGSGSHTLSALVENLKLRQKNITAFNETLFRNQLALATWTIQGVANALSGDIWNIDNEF
Experimental: as §1, §2, §3

T1 sequence (P02786 89-760): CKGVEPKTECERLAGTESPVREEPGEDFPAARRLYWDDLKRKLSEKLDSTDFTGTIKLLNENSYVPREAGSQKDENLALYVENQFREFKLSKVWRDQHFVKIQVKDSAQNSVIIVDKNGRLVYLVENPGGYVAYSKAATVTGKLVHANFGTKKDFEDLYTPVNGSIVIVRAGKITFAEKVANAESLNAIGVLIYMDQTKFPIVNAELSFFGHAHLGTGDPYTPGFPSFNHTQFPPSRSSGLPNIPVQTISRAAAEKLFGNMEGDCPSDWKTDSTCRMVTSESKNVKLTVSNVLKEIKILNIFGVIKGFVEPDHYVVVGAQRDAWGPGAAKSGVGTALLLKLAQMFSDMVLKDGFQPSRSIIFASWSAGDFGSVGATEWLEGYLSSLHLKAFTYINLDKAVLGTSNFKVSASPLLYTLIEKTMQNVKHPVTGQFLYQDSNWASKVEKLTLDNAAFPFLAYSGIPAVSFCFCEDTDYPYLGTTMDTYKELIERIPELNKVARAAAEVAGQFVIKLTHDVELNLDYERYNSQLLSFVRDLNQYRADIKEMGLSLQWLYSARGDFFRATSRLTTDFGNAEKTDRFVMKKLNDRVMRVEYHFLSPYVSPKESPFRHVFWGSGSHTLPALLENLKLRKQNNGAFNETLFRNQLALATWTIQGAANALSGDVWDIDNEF

- Kd [1]: 0.904 nM
- koff [1]: 0.000213 s⁻¹
- kon [1]: 236000 M⁻¹ s⁻¹
- Kd [2]: 2.82 nM
- koff [2]: 0.00053 s⁻¹
- kon [2]: 188000 M⁻¹ s⁻¹
B1: hBDNF-VHH-HSA (other)
chain: HSDPARRGELSVCDSISEWVTAADKKTAVDMSGGTVTVLEKVPVSKGQLKQYFYETKCNPMGYTKEGCRGIDKRHWNSQCRTTQSYVRALTMDSKKRIGWRFIRIDTSCVCTLTIKRGRGSGGSQVQLVESGGGLVQPGGSLRLSCAASGSIFDIYVMRWYRQAPGKGLEWVASIYDGGRNDYDNVVKGRFTISRDNSKNTLYLQMNSLRAEDTAVYFCNVLTYAGRPYWGQGTQVTVSSGSDAHKSEVAHRFKDLGEENFKALVLIAFAQYLQQCPFEDHVKLVNEVTEFAKTCVADESAENCDKSLHTLFGDKLCTVATLRETYGEMADCCAKQEPERNECFLQHKDDNPNLPRLVRPEVDVMCTAFHDNEETFLKKYLYEIARRHPYFYAPELLFFAKRYKAAFTECCQAADKAACLLPKLDELR[sequence of about 200 residues not given]NLIKQNCELFEQLGEYKFQNALLVRYTKKVPQVSTPTLVEVSRNLGKVGSKCCKHPEAKRMPCAEDCLSVFLNQLCVLHEKTPVSDRVTKCCTESLVNGRPCFSALEVDETYVPKEFNAETFTFHADICTLSEKERQIKKQTALVELVKHKPKATKEQLKAVMDDFAAFVEKCCKADDKETCFAEEGKKLVAASQAALGL
notes: SE-HPLC: 98.1% monomer; also called hBDNF-VHH-HSA purified product

- Kd [1]: 0.46 nM
- koff [1]: 0.000146 s⁻¹
- kon [1]: 318000 M⁻¹ s⁻¹
- Kd [2]: 2.04 nM
- koff [2]: 0.000664 s⁻¹
- kon [2]: 326000 M⁻¹ s⁻¹
B2: hBDNF-HSA-VHH (other)
chain: HSDPARRGELSVCDSISEWVTAADKKTAVDMSGGTVTVLEKVPVSKGQLKQYFYETKCNPMGYTKEGCRGIDKRHWNSQCRTTQSYVRALTMDSKKRIGWRFIRIDTSCVCTLTIKRGRGSDAHKSEVAHRFKDLGEENFKALVLIAFAQYLQQCPFEDHVKLVNEVTEFAKTCVADESAENCDKSLHTLFGDKLCTVATLRETYGEMADCCAKQEPERNECFLQHKDDNPNLPRLVRPEVDVMCTAFHDNEETFLKKYLYEIARRHPYFYAPELLFFAKRYKAAFTECCQAADKAACLLPKLDELR[sequence of about 200 residues not given]NLIKQNCELFEQLGEYKFQNALLVRYTKKVPQVSTPTLVEVSRNLGKVGSKCCKHPEAKRMPCAEDCLSVFLNQLCVLHEKTPVSDRVTKCCTESLVNGRPCFSALEVDETYVPKEFNAETFTFHADICTLSEKERQIKKQTALVELVKHKPKATKEQLKAVMDDFAAFVEKCCKADDKETCFAEEGKKLVAASQAALGLGSGGSQVQLVESGGGLVQPGGSLRLSCAASGSIFDIYVMRWYRQAPGKGLEWVASIYDGGRNDYDNVVKGRFTISRDNSKNTLYLQMNSLRAEDTAVYFCNVLTYAGRPYWGQGTQVTVSS
notes: SE-HPLC: 99.0% monomer; also called hBDNF-HSA-VHH purified product
